# Laboratory results as given in the supplement of paper PMC10126150.
# Values marked as one replicate rest on one cluster of the flow cell; about a third of the high ones do not repeat.
# System: ATP
# Assay: switch fluorescence ratio, 500 uM ATP over buffer (Cy3 cluster intensity, sum of 5 cycles each) (fold (ratio)); higher = stronger signal-on switching upon ATP binding; sequences stand for … in TCGTCGGCAGCGTCAGATGTGTATAAGAGACAGTTTTTTTTTTTTTTTTTTTTTTTTT…TC
# Conditions: aptamer strand: ATP DNA aptamer (quencher-CACCTGGGGGAGTATTGCGGAGGAAGG + anchor), 100 nM annealed; ATP concentration: 500 uM; one replicate
# How it was run: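 The fluorescence ratio divides summed target-cycle Cy3 intensity by summed buffer-cycle Cy3 intensity for each cluster and is averaged per switch-domain sequence. Cy3-labelled switching-strand clusters on a modified Illumina MiSeq flow-cell were annealed to 100 nM quencher-labelled ATP aptamer, then imaged in selection buffer and again after 15 min with 500 uM ATP at 22 °C. Five such cycles were run, with NaOH stripping and re-annealing between them, and clusters outside 100-1000 RFU were excluded.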
# 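Note: ATP exposure 15 min at 22 °C before imaging.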
row,Sequence,switch fluorescence ratio
1,ATTACATGAC,1.16
2,ATTGTGAAT,0.968
3,ACAGACCCAG,0.98
4,CGCCGGTCTG,0.998
5,GCGTGATTTT,0.99
6,AGGTAGCAGA,1
7,CGTGCGGCCT,1.03
8,TGGTCACGTG,1.05
9,AATGCGCCGC,0.998
10,ATACACGCCG,1.08
11,CAGGAATTGG,0.975
12,GTCGAATGAA,1.02
13,TGTAGGCTC,1.01
14,AGCCAGCCCT,1.02
15,ATGTCGGTGG,1.03
16,CCAGAGACCT,1.01
17,TGCGTGCGCG,1.08
18,AGCTGGGTGT,1.01
19,TAGTTTGTGG,0.935
20,GATATCCGCC,1.73
21,TTACAGGTTG,1.11
22,TTGTTCCTGT,0.978

row,Sequence,switch fluorescence ratio
1,ATTATCCAAT,1.01
2,AGAAGGTAGA,1.02
3,GGGAATACCT,1.21
4,GAAAAACCCT,1.08
5,AATGACAGTG,1.03
6,GGGGAGGTGA,1.07
7,TGAACTTACT,1.12
8,GAACTGCTGG,0.97
9,CAATAGAGTA,1.04
10,GGGAGTTATG,0.982
11,GGTATTGTTA,1
12,GCTTTGCGCC,0.964
13,TGCGCGGGGC,1.1
14,AATTCCTCGG,1.28
15,ATATGACAGT,1.04
16,AAAAATTGG,0.953
17,AACACCCAGA,1.11
18,CTCGAATTAA,1.04
19,AAATGTGTGC,1.06
20,GCTTGTAATG,0.976
21,CGCGAGTCAC,1.61
22,TTTCATGCCC,0.984

row,Sequence,switch fluorescence ratio
1,CCTGTGTGAA,0.972
2,AAAAAAACAG,1.04
3,ATGGCCGGGG,0.981
4,TCCAGGTTGT,1.49
5,AAGGGGGTC,0.969
6,ATCCTGGGCT,0.986
7,AACTTGAGGT,0.934
8,GACCTACTCG,1.12
9,AATATCTAGC,1.05
10,TGCGAGTCGC,0.991
11,CGAAAGATCG,1.03
12,TCAACTTGTG,1.02
13,GTTAGTGCTT,1.01
14,TCGTACCGGA,1.06
15,TGAAGAAGGA,1.04
16,AATTAGCTAA,1.03
17,GCTCCAAGCG,1.05
18,GTGTGCTTGG,0.99
19,ATTACGCCGA,1.06
20,AAACGTCCCT,1.11
21,GAGCACTCAA,0.997
22,GAAGTTCAAT,1.05

row,Sequence,switch fluorescence ratio
1,GACCCTTGCA,0.985
2,CACCATCCGA,1.25
3,CAAGTTGGTT,0.941
4,CCCTGTCTGC,1.03
5,GCGCGGTATC,1.1
6,AAGCAGAGAG,0.959
7,TGGTCCCGGT,0.983
8,GTTTTGGATG,1.01
9,ACGGAACTTA,1.16
10,TTAGTGGAT,1.02
11,ACGTGGCATT,1.05
12,TAATCACGTA,1.05
13,CCTTATGACA,0.982
14,GGTAAATTAC,0.999
15,TTGCTTATGT,1.02
16,GCATGCCAGT,0.987
17,GCAGAGTGGG,1.02
18,TTAAGAGTTT,1
19,CGGACGACAA,3
